Out of some 310,000 compounds screened, about 2,200 (0.71%) showed an effect of 50% or more. Effects have a minus sign here. The list shows a part of the results.
These molecules were tested against human ether-à-go-go-related gene (hERG) potassium channel (human, UniProt Q12809) (assay: primary screen, population patch clamp on CHO cells stably expressing hERG).
Sequence of human ether-à-go-go-related gene (hERG) potassium channel (Q12809 whole entry, looked up): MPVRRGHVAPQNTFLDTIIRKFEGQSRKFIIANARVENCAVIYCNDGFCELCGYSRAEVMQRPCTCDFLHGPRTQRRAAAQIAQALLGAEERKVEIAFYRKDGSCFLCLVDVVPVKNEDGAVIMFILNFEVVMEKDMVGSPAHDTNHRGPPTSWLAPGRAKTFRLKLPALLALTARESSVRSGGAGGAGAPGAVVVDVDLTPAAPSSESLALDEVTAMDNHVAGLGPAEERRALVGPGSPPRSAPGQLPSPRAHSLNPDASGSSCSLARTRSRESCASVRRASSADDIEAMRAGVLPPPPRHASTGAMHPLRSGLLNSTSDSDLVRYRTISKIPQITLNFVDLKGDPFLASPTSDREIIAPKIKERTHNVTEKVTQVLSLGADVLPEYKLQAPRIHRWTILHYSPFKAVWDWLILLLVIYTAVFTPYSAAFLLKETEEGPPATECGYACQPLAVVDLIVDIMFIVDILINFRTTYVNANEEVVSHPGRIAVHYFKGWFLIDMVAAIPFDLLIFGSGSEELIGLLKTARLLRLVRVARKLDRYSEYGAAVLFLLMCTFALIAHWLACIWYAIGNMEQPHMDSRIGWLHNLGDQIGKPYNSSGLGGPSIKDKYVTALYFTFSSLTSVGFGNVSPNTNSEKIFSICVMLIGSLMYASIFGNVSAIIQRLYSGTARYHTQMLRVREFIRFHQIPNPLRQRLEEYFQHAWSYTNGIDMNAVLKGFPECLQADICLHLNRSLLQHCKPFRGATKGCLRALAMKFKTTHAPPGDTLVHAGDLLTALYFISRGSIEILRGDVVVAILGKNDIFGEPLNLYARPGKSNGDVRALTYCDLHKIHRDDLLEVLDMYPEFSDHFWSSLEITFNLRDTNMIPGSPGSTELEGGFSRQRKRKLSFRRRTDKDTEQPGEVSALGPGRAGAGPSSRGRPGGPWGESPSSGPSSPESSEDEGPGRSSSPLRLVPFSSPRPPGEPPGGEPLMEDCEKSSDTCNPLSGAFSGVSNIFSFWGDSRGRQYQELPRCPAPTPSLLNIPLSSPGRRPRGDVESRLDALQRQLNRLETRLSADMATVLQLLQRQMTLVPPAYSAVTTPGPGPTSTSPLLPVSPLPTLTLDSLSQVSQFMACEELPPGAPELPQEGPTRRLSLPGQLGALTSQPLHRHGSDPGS

First: CCCCCOc1ccc(/C=C/C(=O)NCCc2nc3ccccc3[nH]2)cc1OC
Second: COc1cc(/C=N/Nc2cccc3cccnc23)cc(OC)c1O
The “hERG current change (%, negative = inhibition) at 1uM” value of the first is higher: 24.2% for the first, 8.96% for the second.

First: CCOC(=O)Cc1csc(NC(=O)C(NC(=O)C2CCCCC2)C(C)C)n1 (centres unmarked)
Second: CCN(CC)S(=O)(=O)c1cccc(-c2nnc(SCC(=O)NC3CCCCCC3)n2N)c1
The “hERG current change (%, negative = inhibition) at 1uM” value of the first is higher: 12.3% for the first, 3.46% for the second.

Going from `Clc1cc2nc[nH]c2cc1Cl` to `O=c1[nH]cnc(O)c1C(c1ccc2c(c1)OCO2)c1c(O)nc[nH]c1=O`, the “hERG current change (%, negative = inhibition) at 1uM” value falls from -0.867% to -1.24%.

Going from `Fc1ccc(CSc2ncnc3sc4c(c23)CCCC4)cc1` to `Cc1ccc(NC(=O)C2=CCN(S(=O)(=O)c3ccc(F)cc3)CC2)c(C)c1`, the “hERG current change (%, negative = inhibition) at 1uM” value falls from 12.7% to 11%.

First: Cn1c(=O)c2c(nc(NCc3ccco3)n2Cc2ccc(Cl)cc2Cl)n(C)c1=O
Second: Cc1ccccc1-n1c(O)c(/C=N/Nc2nc3c(c(=O)n(C)c(=O)n3C)n2C)c(=O)[nH]c1=S
The “hERG current change (%, negative = inhibition) at 1uM” value of the first is lower: 5.42% for the first, 6.69% for the second.

Compared with `CC(C)=CCN1CCN(Cc2cccn2-c2nccs2)CC1CCO` (centres unmarked), `c1ccc(COC2CCCN(Cc3nc(-c4cccs4)no3)C2)nc1` (centres unmarked) is higher in “hERG current change (%, negative = inhibition) at 1uM” value: -1.62% for the first, -0.784% for the second.

Going from `O=C1NC[C@H](c2ccccc2)N(CCC23CC4CC(CC(C4)C2)C3)C1=O` to `O=C1Nc2ccccc2N2CCCC12` (centres unmarked), the “hERG current change (%, negative = inhibition) at 1uM” value rises from 16.6% to 17.3%.

Compared with `CCC(C(=O)OCn1nnc2ccccc2c1=O)c1ccccc1` (centres unmarked), `CCOC(=O)c1ccc(NC(=O)CCc2nc(-c3ccccc3)no2)cc1` is higher in “hERG current change (%, negative = inhibition) at 1uM” value: 6.51% for the first, 6.73% for the second.

Compared with `COc1cc(-c2nnc(NC(=O)C3=COCCO3)o2)cc(OC)c1OC`, `Cc1ccc(NCc2nnc(SCC(=O)c3ccc4c(c3)OCCO4)o2)c(C)c1` is higher in “hERG current change (%, negative = inhibition) at 1uM” value: 1.46% for the first, 12.6% for the second.

First: Fc1ccccc1C1CCN(Cc2nc(CC3CC3)no2)C1 (centres unmarked)
Second: COc1ccccc1CN1CCC(n2nccc2NC(=O)c2ccccc2Cl)CC1
The “hERG current change (%, negative = inhibition) at 1uM” value of the first is higher: 9.52% for the first, -47.2% for the second.

Going from `Cc1oc(-c2ccccc2)nc1CC(=O)O` to `Cc1ccccc1NC(=O)Cc1cccs1`, the “hERG current change (%, negative = inhibition) at 1uM” value falls from 13.8% to 5.16%.

First: Cc1cccn2c(=O)c(C(=O)NCCCN3CC(C)CC(C)C3)c(O)nc12 (centres unmarked)
Second: Cc1ccc2c(c1)N(CC(=O)NC1CCC(C)CC1)C(=O)c1cccnc1O2 (centres unmarked)
The “hERG current change (%, negative = inhibition) at 1uM” value of the first is higher: 9.14% for the first, 7.72% for the second.

Going from `Cc1ccc(C2=NNC(C(O)C(O)C(O)C(O)CO)S2)cc1` (centres unmarked) to `Cc1ccc(C(=O)COC(=O)c2nc3nccc(C)n3n2)c(C)c1`, the “hERG current change (%, negative = inhibition) at 1uM” value rises from 3.13% to 9.22%.

Compared with `Cc1ccc(C)c(NC(=O)CCc2c(C)nn(-c3ccc(N4CCCCC4)nn3)c2C)c1`, `COc1ccc(S(=O)(=O)N2CCCCC2)cc1NC(=O)CNc1ccc(F)cc1C` is lower in “hERG current change (%, negative = inhibition) at 1uM” value: 10% for the first, 6.49% for the second.

First: COc1ccc(-c2oc3ncnc(NCCCN4CCOCC4)c3c2-c2ccc(OC)cc2)cc1
Second: COc1ccc(C(=O)N2CCC(N3CCN(c4ccccc4)CC3)CC2)cc1.O=C(O)C(=O)O
The “hERG current change (%, negative = inhibition) at 1uM” value of the first is higher: 12% for the first, -29.4% for the second.

Compared with `CCCCn1c(SCC(=O)c2ccccc2)nc2c1c(=O)[nH]c(=O)n2C`, `Cn1c(=O)[nH]c(=O)c2c1nc(Br)n2CCSc1nc2ccccc2o1` is higher in “hERG current change (%, negative = inhibition) at 1uM” value: -3.8% for the first, 3.34% for the second.

First: Cc1ccccc1C(=O)NNC(=O)CN1C(=O)c2ccccc2C1=O
Second: CC(C)[C@H](NC(=O)N1CCn2c1nc1ccccc12)C(=O)N[C@H](Cc1ccccc1)C(=O)O
The “hERG current change (%, negative = inhibition) at 1uM” value of the first is higher: 10.1% for the first, -0.935% for the second.

Going from `C/C(=N\NC(=O)c1ccc(Br)cc1)c1ccccc1` to `NNC(=O)c1cc2c(ccc3ccccc32)o1`, the “hERG current change (%, negative = inhibition) at 1uM” value rises from 9.51% to 12.6%.

First: Cc1nn(C)c2ncc(C(N)=O)c(Oc3ccc(Cl)cc3)c12
Second: CCN(CC)CCOc1cc2c(nn1)Oc1ccccc1N2C.Cl.O
The “hERG current change (%, negative = inhibition) at 1uM” value of the first is higher: 11.2% for the first, -3.36% for the second.

Going from `CC(C)c1ccc(NC(=S)NCCc2c[nH]c3ccccc23)cc1` to `Nn1cc(-c2ccccc2)nc1SCC(=O)Nc1ccc2c(c1)OCO2`, the “hERG current change (%, negative = inhibition) at 1uM” value falls from 14.9% to -5.26%.

Going from `CC(C)CCOP(=O)(c1ccc(N(C)C)cc1)C(O)c1c(Cl)cccc1Cl` (centres unmarked) to `O=C1c2ccccc2NC(c2ccc(F)cc2)N1Cc1ccco1` (centres unmarked), the “hERG current change (%, negative = inhibition) at 1uM” value falls from 9.28% to -13.7%.

Going from `CC(=O)OC1C(OC(C)=O)N(C(C)=O)C(=O)N1C(C)=O` (centres unmarked) to `CCOc1ccccc1C(=O)NN1CCOCC1`, the “hERG current change (%, negative = inhibition) at 1uM” value rises from 7.95% to 17.7%.

— publication PMC4336329 (PLoS ONE, 2015)
